The target in test [1] is T1, FLAG-GBP5 mutant M5 (E417A/K421A point mutations in the MD domain) (UniProt Q96PP8).
T1 sequence: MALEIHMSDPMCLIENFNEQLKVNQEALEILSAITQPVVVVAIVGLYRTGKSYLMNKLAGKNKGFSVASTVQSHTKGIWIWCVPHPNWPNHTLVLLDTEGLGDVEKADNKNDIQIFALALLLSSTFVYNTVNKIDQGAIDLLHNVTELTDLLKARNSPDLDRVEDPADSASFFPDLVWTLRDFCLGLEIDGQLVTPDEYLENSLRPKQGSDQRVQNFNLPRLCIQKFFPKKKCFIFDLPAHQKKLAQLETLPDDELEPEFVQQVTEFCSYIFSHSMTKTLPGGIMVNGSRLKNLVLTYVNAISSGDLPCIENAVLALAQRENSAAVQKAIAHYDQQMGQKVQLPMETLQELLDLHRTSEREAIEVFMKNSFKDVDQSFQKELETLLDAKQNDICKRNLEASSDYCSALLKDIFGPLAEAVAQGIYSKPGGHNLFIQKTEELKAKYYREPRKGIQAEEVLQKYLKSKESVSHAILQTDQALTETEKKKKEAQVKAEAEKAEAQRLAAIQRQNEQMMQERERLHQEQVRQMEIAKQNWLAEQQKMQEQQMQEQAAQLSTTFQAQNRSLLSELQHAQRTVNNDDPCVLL
Description: co-IP; 293T cells co-transfected for 48 h with FLAG-GBP5 (WT or mutant) and a MYC-tagged OST subunit; lysates (Pierce IP Lysis Buffer) immunoprecipitated overnight at 4°C with anti-FLAG on Dynabeads Protein G; washes include 500 mM NaCl; anti-MYC blot.

Test [2] deals with T2, FLAG-tagged GBP5 (guanylate-binding protein 5) (UniProt Q96PP8).
T2 sequence: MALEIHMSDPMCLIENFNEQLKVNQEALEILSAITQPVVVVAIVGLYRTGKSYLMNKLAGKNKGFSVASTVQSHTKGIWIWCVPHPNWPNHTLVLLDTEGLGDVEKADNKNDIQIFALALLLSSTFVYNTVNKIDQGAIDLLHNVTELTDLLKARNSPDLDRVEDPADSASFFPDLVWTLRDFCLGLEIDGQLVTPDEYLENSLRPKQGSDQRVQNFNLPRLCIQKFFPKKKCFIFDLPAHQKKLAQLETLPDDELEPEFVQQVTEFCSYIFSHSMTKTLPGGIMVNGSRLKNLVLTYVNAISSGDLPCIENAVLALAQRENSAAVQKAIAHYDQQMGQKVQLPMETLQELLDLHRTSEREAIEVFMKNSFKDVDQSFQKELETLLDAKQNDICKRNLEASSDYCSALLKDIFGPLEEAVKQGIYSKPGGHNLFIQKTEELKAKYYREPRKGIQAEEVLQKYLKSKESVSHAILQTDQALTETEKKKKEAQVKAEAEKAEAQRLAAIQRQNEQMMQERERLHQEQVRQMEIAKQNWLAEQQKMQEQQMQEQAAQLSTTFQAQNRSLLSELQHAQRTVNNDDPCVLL
Described as above.

The target of test [3] is T3, IFN-induced endogenous GBP5 (human (endogenous in HEK 293T)) (UniProt Q96PP8).
T3 sequence: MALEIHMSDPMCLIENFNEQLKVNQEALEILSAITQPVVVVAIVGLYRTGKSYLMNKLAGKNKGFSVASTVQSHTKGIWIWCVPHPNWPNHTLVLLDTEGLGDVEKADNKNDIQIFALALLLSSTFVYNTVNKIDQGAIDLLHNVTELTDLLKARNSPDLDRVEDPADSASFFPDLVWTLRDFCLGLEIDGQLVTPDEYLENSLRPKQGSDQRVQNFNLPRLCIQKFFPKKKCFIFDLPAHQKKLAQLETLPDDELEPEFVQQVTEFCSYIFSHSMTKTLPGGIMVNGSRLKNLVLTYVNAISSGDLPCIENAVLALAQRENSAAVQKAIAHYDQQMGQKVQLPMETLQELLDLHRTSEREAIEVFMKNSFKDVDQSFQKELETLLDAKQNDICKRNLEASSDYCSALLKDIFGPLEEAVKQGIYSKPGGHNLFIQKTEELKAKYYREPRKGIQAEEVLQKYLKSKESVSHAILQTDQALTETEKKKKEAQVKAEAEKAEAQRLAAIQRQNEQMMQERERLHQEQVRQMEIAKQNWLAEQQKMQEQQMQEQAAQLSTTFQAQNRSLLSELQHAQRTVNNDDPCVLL
Description: co-IP; 293T cells stimulated with 100 ng/ml IFN-γ; lysates immunoprecipitated with anti-GBP5 antibody; blots for endogenous RPN1, RPN2, DDOST and GBP5.

For another test, the target named is T4, FLAG-tagged GBP5-C583A (UniProt Q96PP8).
T4 sequence: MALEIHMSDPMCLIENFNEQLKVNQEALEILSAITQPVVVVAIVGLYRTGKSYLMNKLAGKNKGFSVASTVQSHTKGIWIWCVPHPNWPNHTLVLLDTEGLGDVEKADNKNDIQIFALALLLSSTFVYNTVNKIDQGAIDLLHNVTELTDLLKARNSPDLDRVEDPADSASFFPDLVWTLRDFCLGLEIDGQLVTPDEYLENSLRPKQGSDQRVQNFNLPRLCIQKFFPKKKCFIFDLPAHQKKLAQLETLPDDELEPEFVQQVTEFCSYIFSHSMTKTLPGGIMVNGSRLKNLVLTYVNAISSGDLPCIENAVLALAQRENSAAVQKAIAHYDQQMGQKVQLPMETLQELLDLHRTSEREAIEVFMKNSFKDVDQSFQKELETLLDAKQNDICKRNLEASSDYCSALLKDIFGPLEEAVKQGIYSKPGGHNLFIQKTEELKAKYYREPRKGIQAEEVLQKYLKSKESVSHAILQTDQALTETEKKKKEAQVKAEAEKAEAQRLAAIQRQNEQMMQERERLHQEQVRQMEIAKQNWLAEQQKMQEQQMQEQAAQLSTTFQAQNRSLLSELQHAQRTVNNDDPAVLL
Description: co-IP; 293T cells transfected for 48 h with FLAG-GBP5 or FLAG-GBP5-C583A; anti-FLAG immunoprecipitation; washes include 500 mM NaCl; blots for endogenous RPN2, RPN1 and DDOST.

Test [4] has as its target T2, FLAG-tagged GBP5 (guanylate-binding protein 5). The description is as above.

Results are given in words; binding and its absence hold for the method and conditions named. Binding seen in cells or lysates may run through a third protein. Some binding calls cover weakened binding; strength is not graded here. For some of these results: Tags and fused reporters may be left off the sequences shown.

B1: MYC-tagged DDOST (protein, UniProt P39656 43-456)
chain: SGPRTLVLLDNLNVRETHSLFFRSLKDRGFELTFKTADDPSLSLIKYGEFLYDNLIIFSPSVEDFGGNINVETISAFIDGGGSVLVAASSDIGDPLRELGSECGIEFDEEKTAVIDHHNYDISDLGQHTLIVADTENLLKAPTIVGKSSLNPILFRGVGMVADPDNPLVLDILTGSSTSYSFFPDKPITQYPHAVGKNTLLIAGLQARNNARVIFSGSLDFFSDSFFNSAVQKAAPGSQRYSQTGNYELAVALSRWVFKEEGVLRVGPVSHHRVGETAPPNAYTVTDLVEYSIVIQQLSNGKWVPFDGDDIQLEFVRIDPFVRTFLKKKGGKYSVQFKLPDVYGVFQFKVDYNRLGYTHLYSSTQVSVRPLQHTQYERFIPSAYPYYASAFSMMLGLFIFSIVFLHMKEKEKSD
For B1, the binding result in test [1] was “no binding”; in test [2], “binds”.

B2: endogenous DDOST (protein, UniProt P39656 43-456)
chain: SGPRTLVLLDNLNVRETHSLFFRSLKDRGFELTFKTADDPSLSLIKYGEFLYDNLIIFSPSVEDFGGNINVETISAFIDGGGSVLVAASSDIGDPLRELGSECGIEFDEEKTAVIDHHNYDISDLGQHTLIVADTENLLKAPTIVGKSSLNPILFRGVGMVADPDNPLVLDILTGSSTSYSFFPDKPITQYPHAVGKNTLLIAGLQARNNARVIFSGSLDFFSDSFFNSAVQKAAPGSQRYSQTGNYELAVALSRWVFKEEGVLRVGPVSHHRVGETAPPNAYTVTDLVEYSIVIQQLSNGKWVPFDGDDIQLEFVRIDPFVRTFLKKKGGKYSVQFKLPDVYGVFQFKVDYNRLGYTHLYSSTQVSVRPLQHTQYERFIPSAYPYYASAFSMMLGLFIFSIVFLHMKEKEKSD
Turning to B2, the figures for the binding entry (in test [3]; in the test with FLAG-tagged GBP5-C583A; in test [4]) were “binds”, “no binding” and “binds”, respectively.

B3: MYC-tagged RPN1 (protein, UniProt P04843 24-607)
chain: ASSEAPPLINEDVKRTVDLSSHLAKVTAEVVLAHLGGGSTSRATSFLLALEPELEARLAHLGVQVKGEDEEENNLEVRETKIKGKSGRFFTVKLPVALDPGAKISVIVETVYTHVLHPYPTQITQSEKQFVVFEGNHYFYSPYPTKTQTMRVKLASRNVESYTKLGNPTRSEDLLDYGPFRDVPAYSQDTFKVHYENNSPFLTITSMTRVIEVSHWGNIAVEENVDLKHTGAVLKGPFSRYDYQRQPDSGISSIRSFKTILPAAAQDVYYRDEIGNVSTSHLLILDDSVEMEIRPRFPLFGGWKTHYIVGYNLPSYEYLYNLGDQYALKMRFVDHVFDEQVIDSLTVKIILPEGAKNIEIDSPYEISRAPDELHYTYLDTFGRPVIVAYKKNLVEQHIQDIVVHYTFNKVLMLQEPLLVVAAFYILFFTVIIYVRLDFSITKDPAAEARMKVACITEQVLTLVNKRIGLYRHFDETVNRYKQSRDISTLNSGKKSLETEHKALTSEIALLQSRLKTEGSDLCDRVSEMQKLDAQVKELVLKSAVEAERLVAGKLKKDTYIENEKLISGKRQELVTKIDHILDAL
Take B3: the binding result in test [1] was “no binding”; in test [2], “binds”.

B4: endogenous RPN1 (protein, UniProt P04843 24-607)
chain: ASSEAPPLINEDVKRTVDLSSHLAKVTAEVVLAHLGGGSTSRATSFLLALEPELEARLAHLGVQVKGEDEEENNLEVRETKIKGKSGRFFTVKLPVALDPGAKISVIVETVYTHVLHPYPTQITQSEKQFVVFEGNHYFYSPYPTKTQTMRVKLASRNVESYTKLGNPTRSEDLLDYGPFRDVPAYSQDTFKVHYENNSPFLTITSMTRVIEVSHWGNIAVEENVDLKHTGAVLKGPFSRYDYQRQPDSGISSIRSFKTILPAAAQDVYYRDEIGNVSTSHLLILDDSVEMEIRPRFPLFGGWKTHYIVGYNLPSYEYLYNLGDQYALKMRFVDHVFDEQVIDSLTVKIILPEGAKNIEIDSPYEISRAPDELHYTYLDTFGRPVIVAYKKNLVEQHIQDIVVHYTFNKVLMLQEPLLVVAAFYILFFTVIIYVRLDFSITKDPAAEARMKVACITEQVLTLVNKRIGLYRHFDETVNRYKQSRDISTLNSGKKSLETEHKALTSEIALLQSRLKTEGSDLCDRVSEMQKLDAQVKELVLKSAVEAERLVAGKLKKDTYIENEKLISGKRQELVTKIDHILDAL
For B4, the binding result in test [3] is given as “binds”; with FLAG-tagged GBP5-C583A, “no binding”; in test [4] it was “binds”.

The record behind these values is doi:10.1101/2024.05.01.591800.
